# Test results as given in the supplement of paper PMC8728848.
# The list shows a part of the results.
# Columns and labels:
# Test in all cases: glycan array binding signal (z-score within array); higher = stronger binding
# Conditions in all cases: glycan notation: IUPAC condensed, linker removed
# [1] = molecular target: Gal(b1-4)GlcNAc(b1-3)Gal(b1-4)GlcNAc(b1-2)[Gal(b1-4)GlcNAc(b1-3)Gal(b1-4)GlcNAc(b1-6)]Man(a1-6)[Gal(b1-4)GlcNAc(b1-3)Gal(b1-4)GlcNAc(b1-2)Man(a1-3)]Man(b1-4)GlcNAc(b1-4)GlcNAc
# How it was run: (§1)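 Glycan array data came from 3228 arrays in the Consortium for Functional Glycomics database, and only arrays with an available protein sequence were kept. Glycan names were put into IUPAC-condensed notation, and columns mapping to the same glycan were averaged. The binding signal is a within-array Z-score, averaged across arrays of one protein sequence run at different concentrations or buffers and across linkers. A negative Z-score can be read as non-binding.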
# [2] = molecular target: Gal(b1-4)GlcNAc(b1-3)Gal(b1-4)GlcNAc(b1-2)[Gal(b1-4)GlcNAc(b1-3)Gal(b1-4)GlcNAc(b1-6)]Man(a1-6)[Gal(b1-4)GlcNAc(b1-3)Gal(b1-4)GlcNAc(b1-2)Man(a1-3)]Man(b1-4)GlcNAc(b1-4)[Fuc(a1-6)]GlcNAc
# How it was run: as §1
# [3] = molecular target: Gal(b1-4)GlcNAc(b1-3)Gal(b1-4)GlcNAc(b1-3)Gal(b1-4)GlcNAc
# How it was run: as §1
# [4] = molecular target: Gal(b1-4)GlcNAc(b1-3)Gal(b1-4)GlcNAc(b1-3)Gal(b1-4)GlcNAc(b1-2)Man(a1-3)[Gal(b1-4)GlcNAc(b1-3)Gal(b1-4)GlcNAc(b1-3)Gal(b1-4)GlcNAc(b1-2)Man(a1-6)]Man(b1-4)GlcNAc(b1-4)GlcNAc
# How it was run: as §1
# [5] = molecular target: Gal(b1-4)GlcNAc(b1-3)Gal(b1-4)GlcNAc(b1-3)Gal(b1-4)GlcNAc(b1-2)Man(a1-3)[Gal(b1-4)GlcNAc(b1-3)Gal(b1-4)GlcNAc(b1-3)Gal(b1-4)GlcNAc(b1-2)Man(a1-6)]Man(b1-4)GlcNAc(b1-4)[Fuc(a1-6)]GlcNAc
# How it was run: as §1
# [6] = molecular target: Gal(b1-4)GlcNAc(b1-3)Gal(b1-4)GlcNAc(b1-3)Gal(b1-4)GlcNAc(b1-2)[Gal(b1-4)GlcNAc(b1-3)Gal(b1-4)GlcNAc(b1-3)Gal(b1-4)GlcNAc(b1-6)]Man(a1-6)[Gal(b1-4)GlcNAc(b1-3)Gal(b1-4)GlcNAc(b1-3)Gal(b1-4)GlcNAc(b1-2)Man(a1-3)]Man(b1-4)GlcNAc(b1-4)[Fuc(a1-6)]GlcNAc
# How it was run: as §1
# [7] = molecular target: Gal(b1-4)GlcNAc(b1-3)Gal(b1-4)GlcNAc(b1-3)Gal(b1-4)GlcNAc(b1-3)Gal(b1-4)GlcNAc(b1-2)Man(a1-3)[Gal(b1-4)GlcNAc(b1-3)Gal(b1-4)GlcNAc(b1-3)Gal(b1-4)GlcNAc(b1-3)Gal(b1-4)GlcNAc(b1-2)Man(a1-6)]Man(b1-4)GlcNAc(b1-4)GlcNAc
# How it was run: as §1
# [8] = molecular target: Gal(b1-4)GlcNAc(b1-3)Gal(b1-4)GlcNAc(b1-3)Gal(b1-4)GlcNAc(b1-3)Gal(b1-4)GlcNAc(b1-2)Man(a1-3)[Gal(b1-4)GlcNAc(b1-3)Gal(b1-4)GlcNAc(b1-3)Gal(b1-4)GlcNAc(b1-3)Gal(b1-4)GlcNAc(b1-2)Man(a1-6)]Man(b1-4)GlcNAc(b1-4)[Fuc(a1-6)]GlcNAc
# How it was run: as §1
# [9] = molecular target: Gal(b1-4)GlcNAc(b1-3)Gal(b1-4)GlcNAc(b1-3)Gal(b1-4)GlcNAc(b1-3)Gal(b1-4)GlcNAc(b1-2)[Gal(b1-4)GlcNAc(b1-3)Gal(b1-4)GlcNAc(b1-3)Gal(b1-4)GlcNAc(b1-3)Gal(b1-4)GlcNAc(b1-6)]Man(a1-6)[Gal(b1-4)GlcNAc(b1-3)Gal(b1-4)GlcNAc(b1-3)Gal(b1-4)GlcNAc(b1-3)Gal(b1-4)GlcNAc(b1-2)Man(a1-3)]Man(b1-4)GlcNAc(b1-4)[Fuc(a1-6)]GlcNAc
# How it was run: as §1
# [10] = molecular target: Gal(b1-4)GlcNAc(b1-3)Gal(b1-4)GlcNAc(b1-3)Gal(b1-4)GlcNAc(b1-3)Gal(b1-4)GlcNAc(b1-3)Gal(b1-4)GlcNAc(b1-2)Man(a1-3)[Gal(b1-4)GlcNAc(b1-3)Gal(b1-4)GlcNAc(b1-3)Gal(b1-4)GlcNAc(b1-3)Gal(b1-4)GlcNAc(b1-3)Gal(b1-4)GlcNAc(b1-2)Man(a1-6)]Man(b1-4)GlcNAc(b1-4)GlcNAc
# How it was run: as §1
# [11] = molecular target: Gal(b1-4)GlcNAc(b1-3)Gal(b1-4)GlcNAc(b1-3)Gal(b1-4)GlcNAc(b1-3)Gal(b1-4)GlcNAc(b1-3)Gal(b1-4)GlcNAc(b1-2)Man(a1-3)[Gal(b1-4)GlcNAc(b1-3)Gal(b1-4)GlcNAc(b1-3)Gal(b1-4)GlcNAc(b1-3)Gal(b1-4)GlcNAc(b1-3)Gal(b1-4)GlcNAc(b1-2)Man(a1-6)]Man(b1-4)GlcNAc(b1-4)[Fuc(a1-6)]GlcNAc
# How it was run: as §1
# [12] = molecular target: Gal(b1-4)GlcNAc(b1-3)Gal(b1-4)GlcNAc(b1-3)Gal(b1-4)GlcNAc(b1-3)Gal(b1-4)GlcNAc(b1-3)Gal(b1-4)GlcNAc(b1-2)[Gal(b1-4)GlcNAc(b1-3)Gal(b1-4)GlcNAc(b1-3)Gal(b1-4)GlcNAc(b1-3)Gal(b1-4)GlcNAc(b1-3)Gal(b1-4)GlcNAc(b1-6)]Man(a1-6)[Gal(b1-4)GlcNAc(b1-3)Gal(b1-4)GlcNAc(b1-3)Gal(b1-4)GlcNAc(b1-3)Gal(b1-4)GlcNAc(b1-3)Gal(b1-4)GlcNAc(b1-2)Man(a1-3)]Man(b1-4)GlcNAc(b1-4)[Fuc(a1-6)]GlcNAc
# How it was run: as §1
# [13] = molecular target: Gal(b1-4)GlcNAc(b1-3)Gal(b1-4)GlcNAc(b1-3)Gal(b1-4)GlcNAc(b1-3)Gal(b1-4)GlcNAc(b1-3)Gal(b1-4)GlcNAc(b1-3)Gal(b1-4)GlcNAc(b1-2)Man(a1-3)[Gal(b1-4)GlcNAc(b1-3)Gal(b1-4)GlcNAc(b1-3)Gal(b1-4)GlcNAc(b1-3)Gal(b1-4)GlcNAc(b1-3)Gal(b1-4)GlcNAc(b1-3)Gal(b1-4)GlcNAc(b1-2)Man(a1-6)]Man(b1-4)GlcNAc(b1-4)GlcNAc
# How it was run: as §1
# [14] = molecular target: Gal(b1-4)GlcNAc(b1-3)Gal(b1-4)GlcNAc(b1-3)GalNAc
# How it was run: as §1
# [15] = molecular target: Gal(b1-4)GlcNAc(b1-3)Gal(b1-4)GlcNAc(b1-3)[Gal(b1-4)GlcNAc(b1-3)Gal(b1-4)GlcNAc(b1-6)]GalNAc
# How it was run: as §1
binder,measurement,setting,value
SialidaseA (Arthrobacter ureafaciens) (protein) MRSNSTSAPSLVRRAATGVLTCAVSIGLLAGLGLPAQAAPTPPNSPTLPPGSFSETNLAADRTAANFFYRIPALTYLGNDVVLAAWDGRPGSAADAPNPNSIVQRRSTDGGKTWGPVQVIAAGHVADASGPRYGYSDPSYIYDAEANKVFAFFVYSKDQGFGGSQFGNDDADRNVISSAVIESSDAGVTWSQPRLITSVTKPGTSKTNPAAGDVRSNFASSGEGIQLKYGPHKGRLIQQYAGDVRQADGSNKIQAYSVYSDDHGVTWHKGANVGDRMDENKTVELSDGRVLLNSRDNANRGYRKVAVSTDGGATYGPVSQDTELPDPANNGAIARMFPNAAQGSADAKKLIFTNANSKTGRENVSARVSCDDGETWPGVRTIRSGFSAYSTVTRLADGKFGVLYEGNYTDNMPFATFDDAWLNYVCAPLAVPAVNIAPSATQEVPVTVTNQEATTLSGATATVYTPSGWSATTVPVPDVAPGASVTVTVALTAPADASGPRSLNAAFTTADGRVSQFTFTATTPVAPQVGLTITGSAPARDVAANPYQAGDVLGYTLNVKSTANVAANSVPLTGTFDSGFLPPAAPNCRYNNLAAGASYNCTTAKHTITAADMERGYFVPEATFSITSTTTPSLTKTVQFTGAAVALRDGLISADISGARTDVGRDLATRPYAAGELVPYAFTVKNTSPFVEQVVPTAGNFSPFLPAGAGNCRYLSLPAGQSYECATPRHAVTAEEVEQGFFVPDTTWEVSAAGQSTRTYRINGGEVDLLVRDAALSATVVAEWKDADGDRFASAGDPVTFTYTVGNAGNVALTGLEAPDAGISLPFLAPGDTATATREHVLTAADVAGGSLAASAFEATARNGSKEVTATAEGQPLELKVQPAQPSKEPELTVQDLEDQTPPFDLGTAFKYRTGQKVSLAGLEYGQWYYVYLNKTGYRLGWMFPTTGDTVEFILPPEVRNGRDDVVVLDKDGRRVSFDRLQVTPKGEKI,glycan array binding signal (z-score),[1],-0.36
same,glycan array binding signal (z-score),[2],0.8
same,glycan array binding signal (z-score),[3],-0.673
same,glycan array binding signal (z-score),[4],0.122
same,glycan array binding signal (z-score),[5],0.225
same,glycan array binding signal (z-score),[6],0.354
same,glycan array binding signal (z-score),[7],-0.27
same,glycan array binding signal (z-score),[8],0.406
same,glycan array binding signal (z-score),[9],0.286
same,glycan array binding signal (z-score),[10],0.053
same,glycan array binding signal (z-score),[11],0.059
same,glycan array binding signal (z-score),[12],0.362
same,glycan array binding signal (z-score),[13],0.155
same,glycan array binding signal (z-score),[14],-0.024
same,glycan array binding signal (z-score),[15],0.142
